Each structure is given as a SMILES string.

In this assay the test system is MLKL phosphorylation, HT29-L23 human colorectal adenocarcinoma cells. Briefly: cells. The following applies: read-out: pMLKL HCS Cell Assay (IC50, uM).
The IC50 is the point on the concentration scale where inhibition reaches its midpoint. For the molecule `Cc1ccc(-c2cc(CN3CCC(F)(F)CC3)c3c(N)ncnn23)cc1C(=O)N[C@@H]1CN(C(=O)OCC(F)(F)F)C[C@@H]1F` [Example 1575, 2,2,2-trifluoroethyl (3R,4S)-3-(5-{4-amino-5-[(4,4-difluoropiperidin-1-yl)methyl]pyrrolo[2,1-f][1,2,4]triazin-7-yl}-2-methylbenzamido)-4-fluoropyrrolidine-1-carboxylate], the IC50 was 0.00055 µM.

With `Cc1ccc(-c2cc(C(F)(F)F)c3c(N)ncnn23)cc1C(=O)N[C@@H]1CN(C(=O)c2cc(C(F)(F)F)ccn2)C[C@@H]1F` [Example 1001, 5-[4-amino-5-(trifluoromethyl)pyrrolo[2,1-f][1,2,4]triazin-7-yl]-N-[(3R,4S)-4-fluoro-1-[4-(trifluoromethyl)pyridine-2-carbonyl]pyrrolidin-3-yl]-2-methylbenzamide], the IC50 was 0.065 µM.

Regarding `COc1ncc(-c2cc(CN)c3c(N)ncnn23)cc1C(=O)NCC[C@H](O)c1ccc(Cl)cc1` [Example 63, (S)-5-(4-amino-5-(aminomethyl)pyrrolo[2,1-f][1,2,4]triazin-7-yl)-N-(3-(4-chlorophenyl)-3-hydroxypropyl)-2-methoxynicotinamide], the half-maximal inhibitory concentration (IC50) was 0.123 µM.

Regarding `Nc1ncnn2c(-c3ccc(OCC(F)(F)F)c(C(=O)N[C@@H]4CN(C(=O)C5CC(F)C5)C[C@@H]4F)c3)cc(C(F)(F)F)c12` (stereo partly drawn) [Example 1071, 5-[4-amino-5-(trifluoromethyl)pyrrolo[2,1-f][1,2,4]triazin-7-yl]-N-[(3R,4S)-4-fluoro-1-(3-fluorocyclobutanecarbonyl)pyrrolidin-3-yl]-2-(2,2,2-trifluoroethoxy)benzamide], the IC50 is 0.131 µM.

As to `Nc1ncnn2c(-c3ccc(C(F)(F)F)c(C(=O)N[C@@H]4CN(C(=O)c5ccccc5F)C[C@@H]4F)c3)cc(C(F)(F)F)c12` [Example 906, 5-[4-amino-5-(trifluoromethyl)pyrrolo[2,1-f][1,2,4]triazin-7-yl]-N-[(3R,4S)-4-fluoro-1-(2-fluorobenzoyl)pyrrolidin-3-yl]-2-(trifluoromethyl)benzamide], the IC50 was found to be 0.02 µM.

In the case of `CCC(O)(C(=O)N1C[C@H](F)[C@H](NC(=O)c2cc(-c3cc(C(F)(F)F)c4c(N)ncnn34)ccc2OC)C1)C(F)(F)F` (stereo partly drawn) [Example 1122, 5-[4-amino-5-(trifluoromethyl)pyrrolo[2,1-f][1,2,4]triazin-7-yl]-N-[(3R,4S)-4-fluoro-1-[2-hydroxy-2-(trifluoromethyl)butanoyl]pyrrolidin-3-yl]-2-methoxybenzamide], the concentration for half-maximal inhibition (IC50) amounted to 0.0086 µM.

For the molecule `COc1ncc(-c2cc(OS(=O)(=O)c3ccc(C)cc3)c3c(N)ncnn23)cc1C(=O)N[C@@H]1CN(C(=O)C2CC(F)(F)C2)C[C@@H]1F` [Example 1601, 4-amino-7-(5-{[(3R,4S)-1-(3,3-difluorocyclobutanecarbonyl)-4-fluoropyrrolidin-3-yl]carbamoyl}-6-methoxypyridin-3-yl)pyrrolo[2,1-f][1,2,4]triazin-5-yl 4-methylbenzene-1-sulfonate], the IC50 is 0.0043 µM.

Take `Cc1ccc(-c2cc(CN3CCC(F)(F)CC3)c3c(N)ncnn23)cc1C(=O)N[C@@H]1CN(C(=O)[C@@](C)(O)C(F)(F)F)C[C@@H]1F` [Example 1571, 5-{4-amino-5-[(4,4-difluoropiperidin-1-yl)methyl]pyrrolo[2,1-f][1,2,4]triazin-7-yl}-N-[(3R,4S)-4-fluoro-1-[(2R)-3,3,3-trifluoro-2-hydroxy-2-methylpropanoyl]pyrrolidin-3-yl]-2-methylbenzamide]: the IC50 was 0.0014 µM.

As to `C[C@@](O)(C(=O)N1C[C@H](F)[C@H](NC(=O)c2cccc(-c3cc(C(F)(F)F)c4c(N)ncnn34)c2F)C1)C(F)(F)F` [Example 774, 3-[4-amino-5-(trifluoromethyl)pyrrolo[2,1-f][1,2,4]triazin-7-yl]-2-fluoro-N-[(3R,4S)-4-fluoro-1-[(2R)-3,3,3-trifluoro-2-hydroxy-2-methylpropanoyl]pyrrolidin-3-yl]benzamide], the half-maximal inhibitory concentration (IC50) was determined as 0.022 µM.

`CC(CC(=O)N1C[C@H](F)[C@H](NC(=O)c2cc(-c3cc(C(F)(F)F)c4c(N)ncnn34)cc(F)c2CF)C1)C(F)(F)F` (stereo partly drawn) [Example 620, 5-[4-amino-5-(trifluoromethyl)pyrrolo[2,1-f][1,2,4]triazin-7-yl]-3-fluoro-N-[(3R,4S)-4-fluoro-1-(4,4,4-trifluoro-3-methylbutanoyl)pyrrolidin-3-yl]-2-(fluoromethyl)benzamide]: the IC50 worked out at 0.0018 µM.

As to `COc1ncc(-c2cc(CN3CC4C(C3)C4(F)F)c3c(N)ncnn23)cc1C(=O)N[C@@H]1CN(C(=O)[C@@](C)(O)C(F)(F)F)C[C@@H]1F` (stereo partly drawn) [Example 1607, 5-[4-amino-5-({6,6-difluoro-3-azabicyclo[3.1.0]hexan-3-yl}methyl)pyrrolo[2,1-f][1,2,4]triazin-7-yl]-N-[(3R,4S)-4-fluoro-1-[(2R)-3,3,3-trifluoro-2-hydroxy-2-methylpropanoyl]pyrrolidin-3-yl]-2-methoxypyridine-3-carboxamide], the 50% inhibitory concentration (IC50) was 0.0012 µM.

In the case of `COc1ncc(-c2cc(C(F)(F)F)c3c(N)ncnn23)cc1C(=O)N[C@@H]1CN(C(=O)NCC(F)(F)F)C[C@@H]1F` [Example 1843, 5-(4-amino-5-(trifluoromethyl)pyrrolo[2,1-f][1,2,4]triazin-7-yl)-N-((3R,4S)-4-fluoro-1-((2,2,2-trifluoroethyl)carbamoyl)pyrrolidin-3-yl)-2-methoxynicotinamide], the 50% inhibitory concentration (IC50) was 0.076 µM.

With `COc1ncc(-c2cc(CN3CCC(F)(F)CC3)c3c(N)ncnn23)cc1C(=O)N[C@@H]1CN(C(=O)CC(C)C(F)(F)F)C[C@@H]1F` (stereo partly drawn) [Example 1258, 5-{4-amino-5-[(4,4-difluoropiperidin-1-yl)methyl]pyrrolo[2,1-f][1,2,4]triazin-7-yl}-N-[(3R,4S)-4-fluoro-1-(4,4,4-trifluoro-3-methylbutanoyl)pyrrolidin-3-yl]-2-methoxypyridine-3-carboxamide], the IC50 turned out to be 0.00053 µM.

As for `Cc1ncc(-c2cc(C(F)(F)F)c3c(N)ncnn23)cc1C(=O)N1CCCC(C)(C(O)c2ccc(F)cc2)C1` (single isomer, unassigned) [Example 1739, (5-(4-amino-5-(trifluoromethyl)pyrrolo[2,1-f][1,2,4]triazin-7-yl)-2-methylpyridin-3-yl)(3-((4-fluorophenyl)(hydroxy)methyl)-3-methylpiperidin-1-yl)methanone], the IC50 is 0.046 µM.

For `Cc1nc(C)c(-c2cc(C(F)(F)F)c3c(N)ncnn23)cc1C(=O)N[C@@H]1CN(C(=O)c2cc(F)ccc2F)C[C@@H]1F` [Example 1197, 5-[4-amino-5-(trifluoromethyl)pyrrolo[2,1-f][1,2,4]triazin-7-yl]-N-[(3R,4S)-1-(2,5-difluorobenzoyl)-4-fluoropyrrolidin-3-yl]-2,6-dimethylpyridine-3-carboxamide], the IC50 came out at 0.023 µM.

`Nc1ncnn2c(C3=C[C@@H](C(=O)NCc4cc(OC(F)(F)F)ccc4F)NC3)cc(C(F)(F)F)c12` [Example 39, (25)-4-{4-aminopyrrolo[2,1-f][1,2,4]triazin-7-yl}-N-{[2-fluoro-5-(trifluoromethoxy)phenyl]methyl}-2,5-dihydro-1H-pyrrole-2-carboxamide]: the IC50 was determined as 0.327 µM.

With `COc1ncc(-c2cc(C(F)(F)F)c3c(N)ncnn23)cc1C(=O)NC1CN(Cc2cccc(C(F)(F)F)n2)CC1F` (racemic) [Example 204, 5-[4-amino-5-(trifluoromethyl)pyrrolo[2,1-f][1,2,4]triazin-7-yl]-N-(4-fluoro-1-{[6-(trifluoromethyl)pyridin-2-yl]methyl}pyrrolidin-3-yl)-2-methoxypyridine-3-carboxamide], the IC50 worked out at 0.218 µM.

For the molecule `COc1c(F)cc(-c2cc(C(F)(F)F)c3c(N)ncnn23)cc1C(=O)N[C@@H]1CN(C(=O)CC(F)(F)F)C[C@@H]1F` [Example 699, 5-[4-amino-5-(trifluoromethyl)pyrrolo[2,1-f][1,2,4]triazin-7-yl]-3-fluoro-N-[(3R,4S)-4-fluoro-1-(3,3,3-trifluoropropanoyl)pyrrolidin-3-yl]-2-methoxybenzamide], the IC50 is 0.112 µM.

As for `COc1ccc(-c2cc(C(F)(F)F)c3c(N)ncnn23)cc1C(=O)N[C@@H]1CN(C(=O)CC(F)(F)F)C[C@@H]1F` [Example 1121, 5-[4-amino-5-(trifluoromethyl)pyrrolo[2,1-f][1,2,4]triazin-7-yl]-N-[(3R,4S)-4-fluoro-1-(3,3,3-trifluoropropanoyl)pyrrolidin-3-yl]-2-methoxybenzamide], the IC50 was 0.039 µM.

Consider `Nc1ncnn2c(-c3cc(C(=O)N[C@@H]4CN(C(=O)C5CCC(F)(F)C5)C[C@@H]4F)c(Cl)cc3F)cc(CN3CC(F)(F)C3)c12` (stereo partly drawn) [Example 1310, 5-{4-amino-5-[(3,3-difluoroazetidin-1-yl)methyl]pyrrolo[2,1-f][1,2,4]-triazin-7-yl}-2-chloro-N-[(3R,4S)-1-(3,3-difluorocyclopentanecarbonyl)-4-fluoropyrrolidin-3-yl]-4-fluoro-benzamide], for which the IC50 is 0.0015 µM.

Turning to `COc1ncc(-c2cc(C(F)(F)F)c3c(N)ncnn23)cc1C(=O)NC1CN(C2c3ccccc3CC2C)C[C@@H]1F` (stereo partly drawn) [Example 1367, 5-[4-amino-5-(trifluoromethyl)-pyrrolo[2,1-f][1,2,4]triazin-7-yl]-N-[(3R,4S)-4-fluoro-1-(2-methyl-2,3-dihydro-1H-inden-1-yl)pyrrolidin-3-yl]-2-methoxypyridine-3-carbox-amide], the IC50 came to 0.064 µM.

As for `COc1ncc(-c2cc(CN3CCOCC3)c3c(N)ncnn23)cc1C(=O)N[C@@H]1CN(S(=O)(=O)CC(F)(F)F)C[C@@H]1F` [Example 1719, 5-(4-amino-5-(morpholinomethyl)pyrrolo[2,1-f][1,2,4]triazin-7-yl)-N-((3R,4S)-4-fluoro-1-((2,2,2-trifluoroethyl)sulfonyl)pyrrolidin-3-yl)-2-methoxynicotinamide], the IC50 turned out to be 0.0011 µM.

As to `COc1ncc(-c2cc(C(F)(F)F)c3c(N)ncnn23)cc1C(=O)N[C@H]1CN(C(=O)C2CCCCC2)C[C@H]1C` (stereo in doubt) [Example 16, 5-[4-amino-5-(trifluoromethyl)pyrrolo[2,1-f][1,2,4]triazin-7-yl]-N-(1-cyclohexanecarbonyl-4-methylpyrrolidin-3-yl)-2-methoxypyridine-3-carboxamide], the IC50 amounted to 1.58 µM.

Source of the values: patent US11618753B2 (priority 2018, dated 2023).
